Assay results taken from article PMC4336329 (PLoS ONE, 2015).
Hit rate of the full screen: of about 310,000 compounds, about 2,200 (0.71%) showed an effect of 50% or more. The effect is printed as a negative number. Some of the results follow.

molecular target: human ether-à-go-go-related gene (hERG) potassium channel (human, UniProt Q12809); assay: primary screen, population patch clamp on CHO cells stably expressing hERG
Sequence (Q12809 whole entry, looked up): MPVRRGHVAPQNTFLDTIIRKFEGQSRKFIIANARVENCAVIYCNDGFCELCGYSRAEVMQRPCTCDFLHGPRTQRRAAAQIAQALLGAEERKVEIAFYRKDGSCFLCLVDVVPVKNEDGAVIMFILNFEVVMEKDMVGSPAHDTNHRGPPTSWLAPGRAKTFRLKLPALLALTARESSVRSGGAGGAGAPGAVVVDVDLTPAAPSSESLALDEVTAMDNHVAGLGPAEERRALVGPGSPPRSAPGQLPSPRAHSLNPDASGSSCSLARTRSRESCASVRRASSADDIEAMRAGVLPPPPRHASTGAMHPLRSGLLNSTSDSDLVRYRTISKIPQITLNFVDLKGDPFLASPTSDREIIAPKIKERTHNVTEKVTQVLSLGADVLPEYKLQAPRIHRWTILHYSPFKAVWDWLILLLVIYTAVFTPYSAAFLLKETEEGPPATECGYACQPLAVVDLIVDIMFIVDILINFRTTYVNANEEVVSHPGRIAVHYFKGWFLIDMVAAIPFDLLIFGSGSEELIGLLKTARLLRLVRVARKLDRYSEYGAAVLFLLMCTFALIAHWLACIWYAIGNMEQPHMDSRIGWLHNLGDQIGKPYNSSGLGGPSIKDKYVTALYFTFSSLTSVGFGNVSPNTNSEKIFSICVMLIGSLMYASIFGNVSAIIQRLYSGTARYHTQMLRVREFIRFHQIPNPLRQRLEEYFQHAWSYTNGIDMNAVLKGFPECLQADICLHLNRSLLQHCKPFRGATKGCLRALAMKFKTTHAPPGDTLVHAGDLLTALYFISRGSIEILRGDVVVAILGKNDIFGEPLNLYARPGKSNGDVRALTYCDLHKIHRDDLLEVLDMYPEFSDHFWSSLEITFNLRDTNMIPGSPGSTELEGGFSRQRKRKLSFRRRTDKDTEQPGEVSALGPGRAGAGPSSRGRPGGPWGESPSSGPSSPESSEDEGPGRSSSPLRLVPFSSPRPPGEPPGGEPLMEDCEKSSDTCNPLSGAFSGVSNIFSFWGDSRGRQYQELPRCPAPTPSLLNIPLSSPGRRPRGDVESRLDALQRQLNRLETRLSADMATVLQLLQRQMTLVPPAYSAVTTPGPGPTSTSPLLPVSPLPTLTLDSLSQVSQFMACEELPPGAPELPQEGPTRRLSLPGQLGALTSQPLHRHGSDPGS

SMILES	hERG current change (%, negative = inhibition) at 1uM [%]
CCOC(=O)/C(C)=N/NC(=O)c1ccc([N+](=O)[O-])cc1	4.23
CCOC(=O)N1CCC(NC(=O)CN(C)S(=O)(=O)c2cc3c(cc2Cl)NC(=O)CO3)CC1	17.2
O=C(NCC(c1ccc(F)cc1)N1CCOCC1)c1cccnc1Sc1ccccc1Cl (stereo not drawn)	8.19
CC1=CC(=C(C#N)c2nc3ccccc3s2)C=C(C)N1CC1CCCO1 (stereo not drawn)	10.4
CCCCc1ccc(-c2c(C#N)c(N)nc3c2CCCC3)s1	4.41
COc1ccc(CN2CCN(C(=O)CC(C)C)CC2)c2ccccc12	7.79
O=C(CN1CCN(C(c2ccccc2)c2ccccc2)CC1)N1CCOCC1.O=C(O)C(=O)O	1.74
CN(C(=O)COC(=O)c1cccnc1Nc1ccccc1F)C1CCS(=O)(=O)C1 (stereo not drawn)	7.08
O=C(/C=C/c1ccco1)Nc1nc(-c2ccccn2)cs1	10.9
CCN(C(=O)Cn1c(=O)oc2ccccc21)c1c(N)n(Cc2ccccc2)c(=O)[nH]c1=O	13.7
Cc1cccc(C(=O)NCC2CCN(C(=O)c3cccc(C)c3)CC2)c1	-2.21
Cl.O=[N+]([O-])c1ccc2ncnc(N3CCN(Cc4ccc5c(c4)OCO5)CC3)c2c1	11.4
O=C(COc1cccc2cccnc12)N1CCc2ccccc21	10
COc1ccc(CC(=O)NNC(=O)CSc2nc(C)c(C)c(=O)[nH]2)cc1	15.5
CCc1noc(C)c1C(=O)N1CCN(S(=O)(=O)c2ccc(Cl)s2)CC1	5.94
CC(C)c1ccc(C(=O)NC2=NCCS2)cc1	7.64
O=C(c1ccc2ccccc2c1)N1CCN(c2ccccc2)CC1	4.03
O=C(Cc1cc(=O)[nH]c(=O)[nH]1)N1CCC(Cc2ccccc2)CC1	17.1
O=C(CC(C(=O)NCc1ccccc1)c1nc2ccccc2c(=O)[nH]1)NCc1ccccc1 (stereo not drawn)	11.1
CC1CCCC(C)N1NC(=O)Cc1ccccc1 (stereo not drawn)	16.3
COC(=O)C(C)Oc1ccc(Cc2ncc(C(F)(F)F)cc2Cl)cc1 (stereo not drawn)	12.5
Cc1ccc2[nH]c(=O)c(CN(CCCO)C(C)c3nnnn3Cc3ccco3)cc2c1 (stereo not drawn)	9.01
Cn1c(NN)nc2c1c(=O)n(Cc1ccccc1)c(=O)n2C	16.5

SMILES	hERG current change (%, negative = inhibition) at 1uM [%]
CCOC(=O)C1(CCOC)CCN(Cc2ccncc2)CC1	18.4
CC1(C)Cc2c(cnn2-c2cccc(F)c2)C(NC(=O)c2csnn2)C1 (stereo not drawn)	-85
O=C(c1ccco1)N(CCC(c1ccccc1)c1ccco1)Cc1ccc(F)cc1 (stereo not drawn)	-7.5
CC1SCC(=O)N(CC(=O)NCc2ccccc2)C1=O (stereo not drawn)	17.2
CC1(C)Nc2ccccc2C(=O)N1c1ccccc1	15.8
O=C(O)c1cccc(NC(CNS(=O)(=O)c2ccc(Cl)cc2)c2ccccc2)c1 (stereo not drawn)	12.9
Cc1ccc(NC(=O)NC2CC(=O)N(c3ccc4c(c3)OCCO4)C2)cc1 (stereo not drawn)	11.3
O=S(=O)(NCc1cc(-c2ccccc2)no1)c1ccccc1Cl	10.2
CCNC(=O)c1ccc(C2SCC(=O)N2Cc2ccco2)cc1 (stereo not drawn)	7.71
Cn1cc(C(=O)NCc2ccccc2F)cn1	11.5
CCCOc1ccc2c(C)c(CC(=O)OC)c(=O)oc2c1	4.92
CCOC(=O)C1C(=O)NC(N2CCCCC2)=NC1c1ccco1 (stereo not drawn)	11.8
CCC(Oc1ccccc1)C(=O)Nc1nnc(C(F)(F)F)s1 (stereo not drawn)	3.14
O=C(O)[C@H]1CCC(=O)N1Cc1ccco1	9.4
COc1ccccc1CCNC(=O)CNC(=O)Cc1cccc2ccccc12	6.4
CC1CCN(c2nc(-c3ccco3)c3c(c2C#N)CC(C)(C)OC3)CC1	8.07
CCOCCc1nnc(NC(=O)c2cccs2)s1	12.7
Cc1c(C(=O)N2c3ccccc3Sc3ccccc32)cccc1[N+](=O)[O-]	7.52
O=C(NCCCN1CCOCC1)c1ccc(S(=O)(=O)Nc2ccccc2F)cc1	12.8
Cc1[nH]c2ccccc2c1-c1csc(N)n1	17
Cc1nnc(SCC(=O)Nc2nsc(-c3ccc(Cl)cc3)n2)s1	-0.254
CN(NC(=O)c1ccc(Cl)cc1)c1ncc(C(F)(F)F)cc1Cl	8.74
